# Test results from ChEMBL document CHEMBL4888484, “Replenishing the malaria drug discovery pipeline: Screening and hit evaluation of the MMV Hit Generation Library 1 (HGL1) against asexual blood stage Plasmodium falciparum ,using a nano luciferase reporter read-out” (2022).
# The whole screen tested about 150,000 compounds, of which about 540 (0.36%) showed an effect of 50% or more. The list shows a part of the results.
# Tested on: Plasmodium falciparum
# Assay: Primary screen in NF54 nanoGlo assay, in single point, at 2uM, 72h; a lower Z score goes with more inhibition
# Assay type: functional, Erythrocyte
# Conditions: timepoint 72 hour
Compound,% Inhibition [%],Z score
C[C@@H](C(=O)N(C)C)n1cnc(-c2ccccc2)c1-c1ccsc1,-9,1
O=C1NCC[C@@H]1Nc1cccc(-c2ccc3c(c2)CCO3)c1,-10,0.91
O=C(NCCn1cccnc1=O)c1ccc(S(=O)(=O)N2CCOCC2)cc1,17,-2.2
CC1(C)CNC(=O)[C@H]1NS(=O)(=O)c1ccc(Cl)s1,5,-0.51
N#Cc1ccc(CN2C(=O)C3CCCCC3C2=O)cc1 (stereo not drawn),8,-0.87
COc1ccc(C2=C[C@@H](c3ccccc3OC)n3nnnc3N2)cc1,11,-1.33
Cc1ccsc1CNC(=O)Cn1ncc(=O)c2ccccc21,6,-0.84
Cc1cccnc1-n1nc(C2CC2)nc1[C@H](C)n1cnc2ccccc21,-10,1.18
CC(C)Cn1cncc1CNc1nc(-c2ccncc2)nc2c1CNC2,-1,0.17
COc1ccc(S(=O)(=O)NCc2ccnc(N3CCN(c4ccc(F)cc4)CC3)c2)cc1Cl,-16,1.56
Cc1nn(C)c(C)c1S(=O)(=O)N1CCC(N2CCc3cc(F)ccc32)CC1,2,-0.31
CCO[C@H]1COC[C@@H]1Nc1ccnc2cc(Cl)ccc12,16,-2.76
CCc1c(C)sc2ncnc(N[C@H]3CCOC[C@@H]3OCCO)c12,-9,1.65
Cc1cc(CNC(=O)N2CCn3ncnc3C2)cc(N2CCCC2)n1,4,-0.47
CN(CC1CC1)C(=O)CN1CCCN(C(=O)c2cccc(F)c2)CC1,-4,0.73
CC(C)c1nccn1C1CN(C(=O)c2ccc3ccccc3n2)C1,-17,2.09
C[C@@H](NC(=O)c1ccncc1)c1ccc(Cl)c(Cl)c1,-3,0.58
O=C(NCc1ccc(F)cc1)N1CCCN(C2CCC2)CC1,-13,2.25
CCOC(=O)N1CCC(NC(=O)c2coc(NC(=O)c3cnccn3)n2)CC1,9,-1.29
CNC(=O)COc1ccc(C[C@H]2CCCS(=O)(=O)C2)cc1,-3,0.61
O=C(Cc1cccc(Cl)c1)N1C[C@@H](CN2CCCCC2)[C@@H](CO)C1,2,-0.28

Compound,% Inhibition [%],Z score
O=C1C[C@H](NC(=O)c2cnc[nH]2)c2ccccc2N1,-14,1.89
O=C1C2CC2C(=O)N1CC1CC(F)(F)C1 (stereo not drawn),-23,2.69
CN1CCO[C@H](C(=O)N2CCCCCCC2)C1,-12,1.65
CCCCN1C(=O)c2ccc(C(=O)N3CCC[C@H]3C(=O)Nc3nc4ccccc4s3)cc2C1=O,8,-0.74
CN(Cc1nnc(C2CC2)o1)[C@H]1CCCC[C@H]1C(F)(F)F,17,-2.1
CCCS(=O)(=O)N[C@H]1CO[C@@H](CN2CCC(F)(F)C2)[C@@H]1O,35,-3.95
COC(=O)C1=C(C(=O)OC)SC(=C2C(=S)C(C)(C)N(C(=O)c3ccccc3)c3ccc(OC(=O)c4ccccc4)cc32)S1,-4,0.43
CN(Cc1noc(C2CCC2)n1)C(=O)NCC[C@@H]1CCCN2CCCC[C@H]12,-2,0.38
O=C(Cn1cnc2ccc(Cl)cc2c1=O)NCCCc1ccccc1,2,-0.27
O=C(Cc1ccccc1Cl)N1CCC(C2(c3cccnc3)NC(=O)N(CC3CCCO3)C2=O)CC1 (stereo not drawn),-2,0.3
CCc1nc(CC(=O)N2CCCC2(C)C)cs1,-20,2.76
O=S(=O)(N[C@H](CO)CC(F)(F)F)c1ccccc1,-7,1.07
O=C(O)c1ncsc1Nc1cccnc1,-2,0.31
Cc1ccc(CN(Cc2ccc(F)cc2)C(=O)CN(CC(C)C)C(=O)c2ccccc2C)o1,-10,1.05
COC(=O)[C@@H](NCC(=O)Nc1ccccc1)C(C)(C)C,-8,1.01
Cn1c(CN2C(=O)N[C@](C)(c3c(F)cccc3F)C2=O)nc2ccccc21,-16,2.43
Cc1cnc(N[C@H]2CCN(C)C2=O)nc1-c1ccnn1C,-6,1.16
Cc1nnc(CN2CCC[C@H](c3nc(C(C)C)cs3)C2)s1,-8,1.01
O=C(CCn1cncn1)N1CCC2(CCC(=O)N(CCc3cccnc3)C2)CC1,-11,2.04
CC1CC1c1ccc(C(=O)Nc2nnc(NS(C)(=O)=O)s2)o1 (stereo not drawn),-1,0.18
COc1cc(C)nc(N[C@H]2CCCC[C@@H]2OC)n1,-5,0.94

Compound,% Inhibition [%],Z score
CC[C@H]1COCCN1Cc1cc(F)ccc1Cl,-9,1.14
CCO[C@@H](CC)C(=O)Nc1ccn(C)n1,-14,1.45
CCCn1nc(C(=O)O)c2c1CC[C@H](N(C)CCc1ccccn1)C2,8,-1.1
CCc1nnsc1C(=O)NCC(F)(F)F,-1,0.27
O=C1Cc2ccc(CC(=O)N[C@H]3CCO[C@@H]3c3cc[nH]n3)cc2N1,-22,2.41
CCS(=O)(=O)N1CCC(N2C(=O)N3CCC[C@@]3(C)C2=O)CC1,2,-0.17
C=CCN(CCc1ccccc1)C(=O)[C@H](C)n1ccnc1,1,-0.12
Cc1c(CC(=O)N2CCCO2)c2c(n1Cc1ccc(F)cc1)CCCC2=O,-18,1.69
O=C1[C@H]2CCCN2C(=O)N1C1CCN(c2ccc(Cl)c(F)c2)C1 (stereo partly drawn),-14,2.21
CCc1cccc(C)c1NC(=O)COc1ccccc1-c1nnc(-c2ccccc2)o1,-9,0.99
CC(CCO)C1(CNC(=O)NCC2CCCO2)CCC1 (stereo not drawn),-7,1.25
CCC(=O)N1CCCc2cc(S(=O)(=O)N3CCC(C(=O)Nc4ccc(C#N)cc4)CC3)ccc21,-1,0.15
CC(C)n1cccc1C(=O)N[C@@H](C)C(N)=O,5,-0.67
O=S1(=O)CCC(CN2CCCC(c3ccc(F)cc3)CC2)C1 (stereo not drawn),1,-0.09
Cc1cccc(OCc2nc(CN(CCN3CCOCC3)C(=O)CC(C)C)cs2)c1,-2,0.34
CNC(=O)CCCN1C[C@@](C)(Cc2ccc3c(c2)OCO3)CCC1=O,4,-0.76
Cc1ccc2oc(C(=O)N3CCc4ccccc43)cc2n1,-12,1.76
CN1CCN(Cc2noc(C3(N)CCCC3)n2)CC1,-9,1.61
Cc1c(C(F)(F)F)nc(-c2ccc(CN3CC(n4cccn4)C3)cc2)[nH]c1=O,-4,0.63
COC(=O)N[C@@H](C)C(=O)NCCCn1ccnn1,-6,1
C[C@H]1CN(C)CCN1C(=O)c1nc(N2CCOCC2)ncc1Cl,-14,2.19

Compound,% Inhibition [%],Z score
CCCc1cc(C(=O)Nc2ccnc(C)c2)[nH]n1,0,0.05
O=C(O)c1cccnc1CN1CCN(c2cccc(Cl)c2Cl)CC1,-10,1.19
COCCN(C(=O)Cc1c[nH]c2cc(Cl)ccc12)[C@@H](C)C(N)=O,-5,0.81
Cc1noc(C)c1S(=O)(=O)NCc1ccnc(-c2cnn(C)c2)c1,-8,1.26
C[C@H]1CCCCN1C(=O)CCc1nc2ccccc2o1,6,-0.79
Cc1ccccc1NC(=O)Cn1nc2c(Oc3ccccc3)nccn2c1=O,-9,1.17
CC(C)NC(=O)CCNC(=O)Nc1cccc(-c2ccsc2)c1,4,-0.84
CCC1CCC(C(=O)NCc2nc(C3CC3)n[nH]2)CC1 (stereo not drawn),-10,0.99
Cc1ccc(Cn2cc([C@H](CC(=O)NCc3ccco3)c3ccc(OCc4ccccc4)cc3)c3ccccc32)cc1,-6,0.71
C[C@@H](CN1CCN(C)CC1)OC(=O)COc1ccc(F)cc1,-6,0.97
Cc1ccc(CN(CC(=O)Nc2sc(C)c(C)c2C)C(C)C)s1,-4,0.49
CN(C)C(=O)N1CC[C@H](N(CCNC(=O)CC2CCCCC2)C2CCOCC2)C1,-4,0.6
C[C@H](Nc1ccc(C#N)nc1)c1ccn(C)n1,-5,0.59
CCN(CC)C1CCN(C(=O)N[C@H](c2cccs2)C2CC2)CC1,5,-0.76
CN(CCC1(O)CCCC1)Cc1ccc(F)cc1Cl,-10,1.89
Cn1nc2c(c1C(=O)N[C@@H]1COCC[C@@H]1Oc1ccccc1)CCCC2,-7,1.25
Cc1cc(NC(=O)Cn2c(=O)c(C#N)c3n(c2=O)CCC3)n(C)n1,3,-0.37
COc1cc(C(=O)N2CCOC23CCN(C)CC3)cc(OC)c1OC,3,-0.36
O=C1NCCCCCN(C(=O)CC2CCCCC2)[C@@H]2C[C@@H](C(=O)N3CCc4ccccc4C3)C[C@H]12,-5,0.79
COc1ccc(CC(=O)NCc2ccc(S(=O)(=O)N3CCC(C)CC3)s2)cc1,-25,2.49
CNc1nc2c(c(C(=O)N3CCCC3)n1)CN(C(=O)Cn1nccc1C)CC2,-7,1.26
